ChEMBL document CHEMBL4888484, “Replenishing the malaria drug discovery pipeline: Screening and hit evaluation of the MMV Hit Generation Library 1 (HGL1) against asexual blood stage Plasmodium falciparum ,using a nano luciferase reporter read-out” (2022)
Screen size: about 150,000 compounds; about 540 (0.36%) showed an effect of 50% or more. The list shows a part of the results.

Each compound was assayed on Plasmodium falciparum (assay: Primary screen in NF54 nanoGlo assay, in single point, at 2uM, 72h; a lower Z score goes with more inhibition). Conditions: timepoint 72 hour.
Assay type: functional, Erythrocyte
`CCCn1cnnc1CNC(=O)c1ccc(-c2ccc(=O)n(C)n2)cc1` was tested, and the “% Inhibition” value was 2% and the Z score was -0.33. With `C[C@H]1C[C@@H]1c1cc(N)n(-c2ccccc2)n1` the “% Inhibition” value was -2% and the Z score was 0.2. With `COC[C@@]12CCN(C(=O)Nc3ccccc3)C[C@@H]1CN(S(C)(=O)=O)C2` the “% Inhibition” value was -23% and the Z score was 2.71. For `O=C(c1cn2cccnc2n1)N1CCC(c2nccn2CC2CCC2)CC1`, the “% Inhibition” value was -10% and the Z score was 1.74. In the case of `O=C(NCc1ccc(F)cc1)c1cncnc1C1CC1`, the “% Inhibition” value is reported as 5% and the Z score is reported as -0.58. `COCCN(Cc1c(-c2ccccc2)nn(C)c1Oc1ccc(OC)cc1)C[C@H](O)COC` was tested, and the “% Inhibition” value was 10% and the Z score was -1.28. `CCc1nnc2n1C[C@@H](NCc1ccccc1OCC(=O)NC)CC2` was tested, and the “% Inhibition” value was -13% and the Z score was 1.2. With `O=C(c1ccno1)N1CC[C@H](Oc2cnccn2)C1` the “% Inhibition” value was 2% and the Z score was -0.21. For `CN(C)C(=O)c1cccc(Oc2nccs2)c1`, the “% Inhibition” value was 32% and the Z score was -3.62. `COc1cccc(C(=O)NC[C@H]2c3cc(OC)c(OC)cc3CCN2Cc2ccc(C)cc2)c1` was tested, and the “% Inhibition” value was 11% and the Z score was -1.43. For `Cc1cccc(C)c1OCC(=O)N[C@@](C)(CO)C(C)C`, the “% Inhibition” value was -6% and the Z score was 0.88. In the case of `O=C(N[C@@H]1COCC[C@@H]1OCC1CC1)C1CCN(Cc2ccco2)CC1`, the “% Inhibition” value is reported as 2% and the Z score is reported as -0.42. In the case of `CCN1CCNC(=O)[C@@H]1Cc1nc(-c2cccnn2)no1`, the “% Inhibition” value is reported as -13% and the Z score is reported as 1.68. With `Cc1cccc(-n2nc(CC(C)C)nc2CNC(=O)N(C)C)n1` the “% Inhibition” value was 9% and the Z score was -1.79. With `Cc1ccc([C@@H]2CC(c3cccn3C)=NN2C(=O)CN(CCN2CCOCC2)C(=O)c2cccc(F)c2)cc1` the “% Inhibition” value was 12% and the Z score was -1.89. For `O=C(Cn1cccc1C(=O)c1ccccc1)NC1CCN(Cc2ccccc2)CC1`, the “% Inhibition” value was -12% and the Z score was 2.35. In the case of `O=S(=O)(c1ccccc1)N1CCC(OC2CCN(Cc3cccnc3)CC2)CC1`, the “% Inhibition” value is reported as -10% and the Z score is reported as 1.23. For `CCn1nccc1C(=O)N(Cc1ccccc1)CC1(C)CCOCC1`, the “% Inhibition” value was -7% and the Z score was 1.09. With `CCc1onc(C)c1NC(=O)NCc1cc(C2CC2)nn1C` the “% Inhibition” value was -19% and the Z score was 1.88. `CCOC(=O)c1c(C)n(-c2ccc(OC)cc2)c2ccc(OC(=O)C#Cc3ccccc3)cc12` was tested, and the “% Inhibition” value was -3% and the Z score was 0.44. `CCOC(=O)C(F)C1CCN(Cc2c(C)nsc2C)C1` (stereo unspecified) was tested, and the “% Inhibition” value was -11% and the Z score was 1.48. `COc1cccc(NC(=O)C2=CCN(Cc3ccc(Cl)cc3)CC2)c1` was tested, and the “% Inhibition” value was 21% and the Z score was -2.67. For `O=C(Nc1nncs1)c1ccc(NCCOc2ccccc2)nc1`, the “% Inhibition” value was -9% and the Z score was 0.87. For `O=C1NCCC[C@H]1C(=O)c1cc(-c2ccccc2)nc2ccccc12`, the “% Inhibition” value was -11% and the Z score was 1.57. `CN1CCN([C@H]2CCCCN(C(=O)CCc3ccc(F)cc3)C2)CC1` was tested, and the “% Inhibition” value was -10% and the Z score was 0.91. `CCOc1ccc([C@H](CC)NCc2cnc(C)nc2)cc1` was tested, and the “% Inhibition” value was -5% and the Z score was 0.79. For `COc1ccc(NC(=O)Cc2nnc(-c3ccncc3)o2)cc1Cl`, the “% Inhibition” value was 4% and the Z score was -0.39. `CCc1cc(CNS(=O)(=O)N2CCCCC2)on1` was tested, and the “% Inhibition” value was -15% and the Z score was 1.97. For `Cc1cc(-c2ccc(C)c(S(=O)(=O)N3CCN(c4cccc(C(F)(F)F)c4)CC3)c2)on1`, the “% Inhibition” value was -3% and the Z score was 0.43. For `COc1cccc(CNC(=O)c2cn3ccnc(-c4ccc(F)cc4)c3n2)c1OC`, the “% Inhibition” value was -11% and the Z score was 1.77. For `COc1ccccc1N(C(C)=O)c1nc(COc2cc(C)nc(C)c2C#N)cs1`, the “% Inhibition” value was -11% and the Z score was 1.1. For `COCCCNS(=O)(=O)c1ccc(-c2cc(C)no2)o1`, the “% Inhibition” value was -1% and the Z score was 0.26. With `CCN1CCN(C(=O)c2n[nH]c3c2CN(C(=O)Cc2ccc(C)cc2)CC3)CC1` the “% Inhibition” value was -6% and the Z score was 0.68. With `O=C(c1cn2c(n1)CCCC2)N1CCN(c2ccccc2F)CC1` the “% Inhibition” value was -13% and the Z score was 2.16. `Cc1c(-c2ccccc2)nn(C)c1NC(=O)NCCN1CCNC1=O` was tested, and the “% Inhibition” value was -11% and the Z score was 1.03. In the case of `Cc1nnnn1CCc1nc(CC(N)=O)nn1-c1ccc(F)c(F)c1`, the “% Inhibition” value is reported as -4% and the Z score is reported as 0.85. For `Cc1ccc(F)c(CN2CCN[C@H](C(=O)NCc3cccnc3)C2)c1`, the “% Inhibition” value was -22% and the Z score was 2.12. For `C[C@@H](c1nccs1)N1CCN(C(=O)c2ccc(C(N)=O)s2)CC1`, the “% Inhibition” value was -14% and the Z score was 1.46. In the case of `O=C(c1cc(-c2cccnc2)n[nH]1)N1CCc2nc[nH]c2C1`, the “% Inhibition” value is reported as -9% and the Z score is reported as 1.2. For `COc1ccc(NC(=O)Cn2nc(N3CCCCCC3)c3ccccc3c2=O)cc1`, the “% Inhibition” value was -6% and the Z score was 0.97. For `COc1cccc(C(=O)Nc2cc(C)nn2-c2nc3c(cnn3-c3ccc(C)cc3)c(=O)[nH]2)c1OC`, the “% Inhibition” value was 3% and the Z score was -0.5. In the case of `CC(C)n1ccc(C(=O)N(C)CCC[C@H]2CCCO2)n1`, the “% Inhibition” value is reported as -7% and the Z score is reported as 1.36. For `Cc1ccccc1OCC(=O)OC1CCCN(C)C1` (stereo unspecified), the “% Inhibition” value was -16% and the Z score was 1.42. With `Cc1sc2ncnc(N3CCN4C(=O)OC[C@H]4C3)c2c1C` the “% Inhibition” value was -3% and the Z score was 0.56. For `O=C(COc1ccc(-n2cccn2)nn1)Nc1cc(F)ccc1F`, the “% Inhibition” value was -2% and the Z score was 0.36. With `Cc1nnc([C@H]2CN(C(=O)c3cccnc3)CC23CCN(C(=O)c2cccnc2)CC3)o1` the “% Inhibition” value was -12% and the Z score was 1.8. In the case of `N#Cc1c(F)cccc1N[C@@H]1C[C@H]1CO`, the “% Inhibition” value is reported as -2% and the Z score is reported as 0.45. In the case of `COCCc1nc(Cn2cnc(-c3ccccc3)c2-c2cccnc2)no1`, the “% Inhibition” value is reported as 2% and the Z score is reported as -0.26. For `NC(=O)[C@H]1CCCN(C(=O)c2ccc(NC(=O)c3cccs3)cc2)C1`, the “% Inhibition” value was -25% and the Z score was 4.62. With `CCC(=O)Nc1ccc2c(c1)C(N1CCOCC1)=Nc1ccccc1O2` the “% Inhibition” value was -10% and the Z score was 1.26. `CO[C@@H](CNS(C)(=O)=O)c1ccccc1Cl` was tested, and the “% Inhibition” value was 12% and the Z score was -1.57. For `O=c1ccc(N2CCN(S(=O)(=O)c3cccc4nsnc34)CC2)nn1-c1ccc(Cl)cc1`, the “% Inhibition” value was 12% and the Z score was -1.44. In the case of `CCn1ncnc1CNC[C@H]1CC1(CC)CC`, the “% Inhibition” value is reported as -2% and the Z score is reported as 0.47.
